Reference: PubChem BioAssay AID1347073 (National Center for Advancing Translational Sciences (NCATS), 2019)
Screen size: about 45,000 compounds; about 200 (0.44%) were called active. About 7% were inconclusive and are not listed. The call rests on the fitted dose curve; in most records, active means well fitted activation curve with a large enough effect; inconclusive means small, poorly fitted or top-dose-only effect; inactive means no such curve, though single readings can be large or run the other way. The list shows a part of the results.

test: qHTS of TDP-43 Inhibitors: NCGC Sytravon Library Screen; conditions: yeast TDP-43 toxicity rescue, BacTiter-Glo growth, 24 h; series mostly up to 46.1 µM; growth rescue (activation): at the top concentration; further: 0% is about no effect; nearly all actives have a fitted effect of over 55% in size
How it was run: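 TDP-43-expressing yeast, pregrown in raffinose, seeded at OD600 0.02 in galactose medium with compound for 24 hr at 30 deg C. Growth read by BacTiter-Glo luminescence, so rescue of toxicity appears as activation.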

SMILES	growth rescue (activation)
O=c1[nH]nnc2c1sc1nc(N3CCOCC3)c3c(c12)CCCC3	inactive: 13.4%
COc1ccc(CCN2C(=O)NC(NC(=O)C(C)(C)C)(C(F)(F)F)C2=O)cc1OC (centres undefined)	inactive: 12.6%
CN1CCN(C(=O)CSc2ccc(C(F)(F)F)cc2[N+](=O)[O-])CC1	inactive: -2.77%
O=C(OCc1cccc(C(F)(F)F)c1)c1ccc[nH]c1=O	inactive: -11.9%
O=C(O)c1cc(N/N=C/c2ccncc2)ccc1Cl	inactive: -14.4%
Cc1cc([N+](=O)[O-])nn1CC(=O)NCCCn1ccnc1	inactive: 15.6%
CC(=O)c1sc(=S)n(-c2ccccc2)c1C	inactive: 5.55%
COCCNC(=O)C(NC(=O)C1CCCCC1)C(C)C (centres undefined)	inactive: 9.08%
Cc1ccc(C(=O)NNC(=O)CSc2nnc(C(C)C)n2C)cc1	inactive: 14.4%
CCc1noc(C)c1C(=O)OCC(=O)NCc1ccc(Cl)cc1	inactive: -10.6%
COc1ccccc1C(=O)Nc1onc(C)c1C#N	inactive: 26.2%
CSc1ccc(C(O)c2ncc(-c3ccccc3Cl)[nH]2)cc1 (centres undefined)	inactive: 4.62%
COc1ccc(OC)c(Nc2nc(-c3ccncc3)nc3ccccc23)c1	inactive: 13.1%
CCCCC(=O)N(c1ccc(C(=O)O)cc1)c1nc(-c2ccc(Cl)cc2)c(CC)s1	inactive: 3.52%
CC(C)(C)NCc1ccc(OCc2cccs2)cc1	inactive: 11.4%
CC(C(=O)OCC(=O)c1ccc([N+](=O)[O-])cc1)N1C(=O)C2C3C=CC(C3)C2C1=O (centres undefined)	inactive: -9.9%
COc1ccccc1N1CCN(C(=O)c2cc3n(n2)C(C(F)(F)F)CC(c2ccco2)N3)CC1 (centres undefined)	inactive: -21.5%
Cn1c(=O)c2c(n(Cc3ccccc3)c1=O)NC(=O)C2CC(=O)N1CCc2ccccc2C1 (centres undefined)	inactive: -2.04%
Cc1cc(C(=O)COC(=O)Cc2ccc(Cl)cc2)c(C)n1C	inactive: -5.98%
CCOC(=O)c1c(C)c(C)n(Cc2ccc(OC)c(OC)c2)c1C	inactive: 15.9%
Cc1ccc(NC(=O)Cn2nc(-c3ccccc3)nc2-c2ccccc2)c(C)c1	inactive: 18.2%
COc1ccc(/C=N/N=C2/NC(=O)C(CC(=O)O)S2)cc1OS(=O)(=O)c1ccccc1 (centres undefined)	inactive: -5.71%
COc1ccc(CNC(=O)CS(=O)CC(=O)O)cc1OC (centres undefined)	inactive: -9.31%
O=C(N/N=C/c1ccc2c(c1)OCO2)c1ccc(Cl)cc1Cl	inactive: 14.6%
COc1cc(/C=N/NC(=O)c2ccc(C)nc2)cc([N+](=O)[O-])c1O	inactive: -19.6%
Cc1[nH]c2ccccc2c(=O)c1CN1CCCCCC1	inactive: -4.58%
CCOc1ccccc1C(=O)Nc1cc(-c2nc3cccnc3s2)ccc1C	inactive: 5.28%

SMILES	growth rescue (activation)
Cc1ccc(NC(=O)COC(=O)c2cccnc2)cc1	inactive: -1.98%
Cc1ccc2nc(NC(=O)CN3CCN(c4ccccn4)CC3)sc2c1	inactive: -2.11%
CNc1ccccc1C(C)(C)c1cc(-c2cccc([N+](=O)[O-])c2)no1	inactive: 21.4%
CCc1nn(CC(=O)NCCN2CCN(C)CC2)c(=O)c2cc3occc3n12	inactive: 19.6%
CCOc1ccc(N2CC(C(=O)NCCc3ccc(S(N)(=O)=O)cc3)CC2=O)cc1 (centres undefined)	inactive: -5.68%
COc1ccc(C(=O)Nc2ccc(C3=NNC(=O)CC3C)cc2NC(=O)c2ccc(OC)cc2)cc1 (centres undefined)	inactive: 16.2%
N#Cc1ccc(OC(=O)c2cnccn2)cc1	inactive: -5.36%
COc1ccccc1NC(=O)Cn1cnc2c1c(=O)n(C)c(=O)n2C	inactive: 2.05%
O=C(NCCc1ccncc1)Nc1ccc(F)cc1	inactive: 6.29%
CC(C)n1nccc1N(Cc1ccc(C#N)cc1)S(=O)(=O)c1ccccc1	inactive: 8.82%
O=C(CN1CCCCCC1)Nc1ccccc1	inactive: 0.364%
O=C(O)C1CCCN1C1=NS(=O)(=O)c2ccccc21 (centres undefined)	inactive: -0.423%
CN(C)c1cc(Cl)c2nonc2c1N	inactive: 9.56%
O=C(CNC(=O)c1ccccc1Cl)NC1CCN(Cc2ccccc2)CC1	inactive: 4.21%
Cc1cccn2c(=O)c3cc(C(=O)NCCc4ccccc4)c(=N)n(CC4CCCO4)c3nc12 (centres undefined)	inactive: 8.26%
CCCc1cc(=O)[nH]c(SCC(=O)Nc2ccccc2C#N)n1	inactive: 15.4%
Cc1ccc(N(Cc2cc(=O)[nH]c3ccccc23)C(=O)CCl)c(C)c1	inactive: 9.33%
O=C(c1cc2c(s1)CCCC2)N1CCN(CCO)CC1	inactive: -6.35%
O=C(NNC(=O)C1CCCO1)c1ccc([N+](=O)[O-])cc1 (centres undefined)	inactive: 1.95%
O=C(COC(=O)/C=C/c1cccc(Br)c1)NCCC1=CCCCC1	inactive: 19.7%
N#CC(C#N)=C1C=CC=CN1/C(=C\c1ccco1)C(=O)c1ccc(Br)cc1	inactive: 12.6%
O=C(Nc1ccc(N2CCOCC2)cc1)C1=NN(c2ccccc2)C(=O)CC1	inactive: 24.1%
CCOC(=O)c1cc2cc([N+](=O)[O-])ccc2oc1=O	inactive: 16.7%
CCN(CC)S(=O)(=O)c1ccc(OCC(=O)NC2CCS(=O)(=O)C2)c([N+](=O)[O-])c1 (centres undefined)	inactive: -8.41%
CCOC(=O)Cc1csc(NC(=O)Cc2ccc(Br)cc2)n1	inactive: 33.8%
COc1ccccc1Nc1ccc([N+](=O)[O-])cn1	inactive: 5.99%
CC(=O)Nc1ccc(C(=O)CN2C(=O)NC3(CCCc4ccccc43)C2=O)c(F)c1 (centres undefined)	inactive: 17.9%
